# In PMC4336329 (PLoS ONE, 2015):
# Among all 310,000 compounds or so, about 2,200 (0.71%) showed an effect of 50% or more. Effects have a minus sign here. This is one part of the list.
# Target: human ether-à-go-go-related gene (hERG) potassium channel (human, UniProt Q12809)
# Experiment: primary screen, population patch clamp on CHO cells stably expressing hERG
# human ether-à-go-go-related gene (hERG) potassium channel, sequence (Q12809 whole entry, looked up): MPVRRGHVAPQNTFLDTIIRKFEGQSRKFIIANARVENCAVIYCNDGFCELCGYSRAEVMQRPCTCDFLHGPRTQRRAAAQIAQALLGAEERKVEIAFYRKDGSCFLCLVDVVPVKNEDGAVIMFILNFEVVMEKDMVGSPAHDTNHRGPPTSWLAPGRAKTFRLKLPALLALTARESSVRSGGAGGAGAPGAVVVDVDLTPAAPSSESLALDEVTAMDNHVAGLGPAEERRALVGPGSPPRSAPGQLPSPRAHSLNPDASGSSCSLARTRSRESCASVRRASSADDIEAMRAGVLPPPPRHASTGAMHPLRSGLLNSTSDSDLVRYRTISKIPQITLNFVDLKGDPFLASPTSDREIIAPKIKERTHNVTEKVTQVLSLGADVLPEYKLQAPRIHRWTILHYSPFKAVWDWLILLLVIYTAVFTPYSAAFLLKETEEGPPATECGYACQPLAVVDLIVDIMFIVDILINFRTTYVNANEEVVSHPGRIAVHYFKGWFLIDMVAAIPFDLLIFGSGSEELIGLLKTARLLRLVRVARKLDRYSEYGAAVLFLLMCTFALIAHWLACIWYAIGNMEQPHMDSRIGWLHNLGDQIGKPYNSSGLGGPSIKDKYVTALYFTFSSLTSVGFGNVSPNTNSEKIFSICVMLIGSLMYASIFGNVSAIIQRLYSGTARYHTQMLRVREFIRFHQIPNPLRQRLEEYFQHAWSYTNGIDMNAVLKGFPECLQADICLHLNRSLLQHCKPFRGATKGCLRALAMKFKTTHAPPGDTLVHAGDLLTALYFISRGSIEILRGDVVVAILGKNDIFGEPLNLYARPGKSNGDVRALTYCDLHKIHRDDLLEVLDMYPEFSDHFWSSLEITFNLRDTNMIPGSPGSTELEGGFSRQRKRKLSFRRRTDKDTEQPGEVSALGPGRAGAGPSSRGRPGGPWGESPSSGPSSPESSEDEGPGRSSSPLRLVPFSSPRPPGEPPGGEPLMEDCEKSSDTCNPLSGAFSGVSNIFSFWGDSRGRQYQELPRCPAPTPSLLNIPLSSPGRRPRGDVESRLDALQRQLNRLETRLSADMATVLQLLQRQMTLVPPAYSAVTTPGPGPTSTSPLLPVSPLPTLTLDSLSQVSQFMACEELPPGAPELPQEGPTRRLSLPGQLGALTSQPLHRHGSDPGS
row,Compound,"hERG current change (%, negative = inhibition) at 1uM [%]"
1,Cc1ccc(CN2CCC(CNC(=O)C3CCCN(c4ncnc5c4nc4n5CCCCC4)C3)CC2)cc1 (centres unmarked),-2.59
2,CCOc1cccc(C2C(C(=O)c3ccco3)=C(O)C(=O)N2c2nnc(C)s2)c1 (centres unmarked),3.54
3,O=C(N/N=C/c1ccc(N2CCOCC2)s1)c1ccccc1Br,15.9
4,COc1ccc(NC(=O)C(=O)N/N=C/c2cc(C)n(-c3cccc(Cl)c3Cl)c2C)c(OC)c1,4.55
5,O=c1oc2ccccc2c2nccnc12,11.6
6,COc1ccc(Nc2nc3ccccc3n3cnnc23)cc1Cl,14.4
7,COc1ccc(OC)c(N2C(=O)C(Cl)=C(N3CCCCC3)C2=O)c1,-1.86
8,COc1ccc(OC)c(C(=O)c2ccc(C(=O)Nc3ccccc3)cc2)c1,10.3
9,O=C(NCC1CCCO1)C(c1cccs1)N(Cc1cccs1)C(=O)c1ccc(-c2ccccc2)[nH]1 (centres unmarked),16.7
10,O=S(=O)(c1ccccc1)C1CON(Cc2ccccc2)C1c1ccccc1 (centres unmarked),9.91
11,COc1cc(/C=N/NC(N)=O)ccc1OCC(=O)N1C(C)CCCC1C (centres unmarked),8.85
12,O=C(CCCCCn1c(=S)[nH]c2ccccc2c1=O)N1CCC2(CC1)OCCO2,4.05
13,COc1ccc(C(C)=O)cc1CSc1ncccn1,7.7
14,CCOC(=O)c1cc2c(ccn2C)n1Cc1ccccc1C,14.8
15,CC(C)C(=O)NN(C(=O)C(C)C)c1nc2ccccc2s1,11.4
16,CCOc1cc(CNCCc2ccccc2F)ccc1OC.O=C(O)C(=O)O,-13.9
17,O=S(=O)(Cc1ccccc1)c1cnc2ccccc2n1,11
18,O=C(NCc1cccs1)c1ccccc1C(=O)NCc1cccs1,-14.4
19,CCCCN(C(=O)c1ccc2c(c1)OCCO2)c1c(N)n(CCCC)c(=O)[nH]c1=O,-7.57
20,COc1ccc(CNC(=O)CN(C)S(=O)(=O)c2ccc3c(c2)OCCO3)cc1OC,15.2
21,Cc1[nH]c2ccccc2c1/C=N/NC(=O)CNC(=O)c1ccc2c(c1)OCO2,5.11
22,CSc1ccc(CNC(=O)Cc2ccc(NC(=O)C3=C(C)OCCS3)cc2)cc1,39.5
23,O=C(NCCCO)/C(=C\c1ccco1)NC(=O)c1ccco1,4.16

row,Compound,"hERG current change (%, negative = inhibition) at 1uM [%]"
1,COc1ccccc1NC(=O)c1c([N+](=O)[O-])cnn1C,13.4
2,COc1ccc(-n2c(Cc3ccccc3)nc3ccccc3c2=O)cc1,-33.8
3,CN=C(NC1CCCCC1)c1ccc(Cl)cc1.Cl,6.89
4,COc1ccc(NC(=O)COc2ccc(C(=O)NC3CCCc4ccccc43)cc2OC)cc1 (centres unmarked),1.58
5,CC(=O)Cc1nsc(NC(=O)c2ccco2)n1,10.9
6,Cc1nn(C(=O)c2ccc([N+](=O)[O-])cc2)c(C)c1Br,16.2
7,c1ccc2c(c1)CC1(CCCCC1)n1nnnc1-2,10.1
8,CC(=O)N1CCN(c2ccc(NCc3ccc(C)cc3)cc2)CC1,14.5
9,COc1ccc([N+](=O)[O-])cc1N(CC(=O)NC1CCCC1)S(C)(=O)=O,19.6
10,C=CCn1c(C#N)c(N)sc1=N,2.53
11,Cc1ccc(C)c(NC(=O)C(=O)NCCc2c[nH]c3ccccc23)c1,13
12,COc1ccc2[nH]c(C(=O)O)c(CCNC(=O)/C=C/c3ccc(O)c(OC)c3)c2c1,13.1
13,O=C(N/N=C/c1cccc2ccccc12)c1cccc(F)c1,12.3
14,Cc1ccc(C(=O)N2CC(C)OC(C)C2)c(Cl)c1 (centres unmarked),4.1
15,Cc1noc(C)c1CS(=O)(=O)c1ccc(Br)cc1,13.7
16,CCC(=O)Nc1nc2nc(C)cc(=O)n2[nH]1,7.94
17,C=CCC(CC=C)(NC(=O)c1cccc(C)c1)c1ccccc1,8.19
18,O=C(O)c1cccc(NC(=O)c2ccccc2NC(=O)c2ccco2)c1,2.85
19,Cc1onc(-c2ccccc2)c1C(=O)NCc1ccccc1F,14.3
20,COC(C)(C)[C@H](O)COc1c2ccoc2cc2oc(=O)ccc12,14.3
21,O=C(C1=C[C@H](c2ccc(C(F)(F)F)cc2)C[C@H](OCCCCO)O1)N1CCOCC1,-1.21
22,CCc1cc2ccc(C)cc2nc1SCC(=O)c1ccc(NC(C)=O)cc1,1.32
23,Cc1occc1-c1nnc(SCC(=O)N2CCc3ccccc32)o1,9.98

row,Compound,"hERG current change (%, negative = inhibition) at 1uM [%]"
1,COc1ccccc1NCC(=O)N/N=C/c1cccnc1,4.49
2,CNCCc1ccc(O)c(O)c1.Cl,20.6
3,CC(=O)c1ccc2c(c1)Nc1ccccc1S2,0.943
4,CCOC(=O)CNC(=O)c1sc(NC(=O)c2ccccc2F)nc1C,5.43
5,O=C(C1CCCN(S(=O)(=O)c2ccc(Br)s2)C1)N1CCCCCC1 (centres unmarked),2.77
6,Cc1cc(C)c(NC(=O)CC(=O)c2ccccc2)c(Cl)c1,10
7,O=C(Nc1ccc(N2CCOCC2)cc1)c1cc2ccccc2o1,13.7
8,COc1ccc(S(=O)(=O)N2CCCCC2)cc1NC(=O)C1CC1,1.01
9,Nc1cc(S(=O)(=O)Nc2ccccc2Cl)ccc1N1CCCC1,5.41
10,Cc1ccc(N(C(=O)c2csnn2)C(C(=O)NC2CCCCC2)c2ccco2)cc1 (centres unmarked),11.7
11,Cc1ccc(C)c(N(C(=O)c2csnn2)C(C(=O)NC2CCCC2)c2cccnc2)c1 (centres unmarked),12.1
12,Oc1ccccc1-c1n[nH]c(=S)n1Cc1ccccc1,18.9
13,CCOc1ccc(/C(O)=C2/C(=O)C(=O)N(CCN(CC)CC)C2c2ccco2)cc1 (centres unmarked),1.22
14,Cc1ccccc1Cn1cnc2c([N+](=O)[O-])c(C)c(C)cc21,0.853
15,COc1ccc(C(C#N)=C2C=CC(=NO)C=C2)cc1,5.59
16,CN(Cc1ccccc1)C(=O)c1cc2ccccc2o1,7.48
17,O=C(Cc1cccs1)Nc1nnc(SCc2ccc(F)cc2)s1,14.9
18,O=C(NNC1CC(=O)N(c2ccc(Cl)cc2)C1=O)c1ccccc1Cl (centres unmarked),13.8
19,CCOC(=O)c1ccc(NC(=O)CSC(=S)N2CCOCC2)cc1,-8.55
20,O=C(CCC(=O)N1CCSc2ccccc21)NC1CCCCC1,2.59
21,COc1ccc(C(=O)N2CCC(n3nnc4cc(F)ccc43)CC2)cc1OC,-20.5
22,O=C(NCCOc1ccccc1Cl)C(=O)Nc1ccccc1,3.74
23,Cc1ccc(S(=O)(=O)N(Cc2cc3cccc(C)c3[nH]c2=O)c2ccccc2)cc1,11.6

row,Compound,"hERG current change (%, negative = inhibition) at 1uM [%]"
1,CC(C)C(C)NC(=O)COc1ccc(OCc2ccccc2)cc1 (centres unmarked),4.32
2,C=CCn1c(C(C)NC(=O)COC)nc2ccccc21 (centres unmarked),16.7
3,O=C(c1cc(-c2ccc(O)cc2)on1)N1CCc2ccccc2C1,3.87
4,CCOCCCNCC(=O)NC1(C)C2CCC(C2)C1(C)C.Cl (centres unmarked),8.93
5,Cc1cc(=O)n2c(C(=O)Nc3ccc(C)c(C)c3)c(C(=O)Nc3ccccc3)sc2n1,11.2
6,CC(C)(O)c1[nH]c2ccc(C(F)(F)F)cc2c1C(C)(C)O,14.6
7,CCN(C(=O)Cn1c(=O)oc2cc(S(=O)(=O)N3CCCC3)ccc21)c1ccc(OC)cc1,6.02
8,CC(C)CC(=O)Nc1ccc(-c2nc3ccccc3c(=O)o2)cc1,0.334
9,O=C(O)c1ccc(C2SCC(=O)N2Cc2ccccc2)cc1 (centres unmarked),1.98
10,COc1ccc(C(=O)NNC(=S)NC(=O)c2ccc(F)cc2)cc1Br,21.5
11,CCOC(=O)Nc1ccc(S(=O)(=O)NCc2ccccc2)cc1,10.2
12,Cc1ccc(NC(=O)c2c([N+](=O)[O-])c(C(C)(C)C)nn2C)c(C)c1,21.7
13,CC(=O)N1CCc2cc3nc(C)cc(C)c3cc21,-18.2
14,CCS(=O)(=O)c1ccc(O)c(NC(=O)/C=C/c2ccc(Cl)cc2)c1,-0.0214
15,O=C(/C=C/c1ccccc1)c1c[nH]c2ccccc12,3.22
16,CC(=O)NS(=O)(=O)c1ccc(NC(=O)C2C3C=CC(C3)C2C(=O)O)cc1 (centres unmarked),7.33
17,Cc1nc(NC(CC(C)C)C(=O)O)c2nc(C)oc2n1 (centres unmarked),0.536
18,COc1cc(-c2nc(CCNC(=O)c3ccco3)cs2)cc(OC)c1OC,2.35
19,O=C(OCc1cccc(F)c1)c1ccc2c(=O)n3c(nc2c1)CCC3,8.26
20,Cc1ccc(C(C#N)c2ccc(Cl)nn2)cc1 (centres unmarked),4.47
21,COc1ccc(C(CNc2nc(-c3cccnc3)nc3ccccc23)N(C)C)cc1 (centres unmarked),-3.99
22,O=C1OC(Cc2ccccn2)C(O)=C1C1=NCCCCN1 (centres unmarked),-3.6
23,CCc1nnc(NC(=O)CCC(=O)N2CCN(Cc3ccc(OC)c(F)c3)CC2)s1,18.2
